Key:
hrGDF-15 = target: T1, hrGDF-15 (Homo sapiens, UniProt Q99988); assay: Colorimetric ELISA binding to coated hrGDF-15; conditions: serial 1:3 dilution from 333 ng/ml; in comparison to B12
T1 sequence (Q99988 with tags, fused parts or gaps limits assumed): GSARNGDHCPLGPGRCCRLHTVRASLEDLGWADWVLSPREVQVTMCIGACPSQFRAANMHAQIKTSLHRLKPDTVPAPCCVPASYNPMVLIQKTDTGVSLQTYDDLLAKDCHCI
Description: Additionally, by using a colorimetric assay, it was confirmed that all anti-GDF-15 antibodies used in the study bound to GDF-15 in a concentration-dependent manner. To determine the binding of B1-23 antibody variants to GDF-15, a […] ELISA experiment was performed. […] Therefore, Maxisorp 96 well plates (Nunc) were coated with hrGDF-15 (25 ng protein per well, 50 μl volume) over night at 4° C. The following day, plates were washed to remove unbound protein (3 times with 150 μl of PBS 0.05% Tween®) and non-specific binding sites were blocked with 150 μl of PBS 1% BSA for 2 hours at room temperature. Again, plates were washed and different variants of B1-23 test antibodies were applied (50 μl volume). To inquire specificity of the antibody binding, endpoint dilution was performed starting from 333 ng/ml and 1:3 serial dilution. As background control, PBS 1% BSA was applied. Following binding for 1 hour at room temperature, wells were washed as described above. As secondary antibody HRP conjugated Anti-human IgG (Life technologies, 1:5000) was applied for 1 hour at room temperature. Wells were washed as described above to remove unbound secondary antibody. […] For analysis, optical density at 450 nm was quantified using the ELISA reader (Tecan Sunrise) and the corresponding Magellan software.

[1] = Protein A elution at physiological pH and 10 fold concentration via spin columns, turbidity; assay type: physicochemical; conditions: TRIS Buffer at physiological pH, from 0.5 mg/ml
Description: FIG. 7: Improved solubility of the chimeric and the humanized antibody at physiological pH.
5 mg of antibody (B1-23, chimeric B1-23=“ChimB1-23”, H1L5) were loaded on Proteus™ protein A columns, eluted and collected in a TRIS Buffer at physiological pH. After elution, the quality of the purified antibodies was assessed by Coomassie Brilliant Blue gel analysis. The concentration of the eluted antibodies was measured photometrically as well as in a Bradford assay (Roti-Quant, Carl Roth, Karlsruhe, Germany). […] The antibodies were then 10 fold concentrated via spin columns (Centricon, MWCO 30). […] All concentrated eluates were then centrifuged for 5 min at 13000 rpm in order to precipitate antibody aggregates. The remaining amount of soluble antibodies was finally determined via Bradford assay from the supernatant.

[2] = Study No. 140123: feed consumption of UACC-257 inoculated mice; assay type: in vivo, Balb/c^nu/nu mice
Description: (§1) Treatment of cancer-induced weight loss with anti-GDF-15 antibodies. In the underlying animal study No. 140123, 10 Balb/c^nu/nu mice per treatment group were subcutaneously inoculated with 10×10^6 UACC-257 cells per animal in a 1:1 volume ratio with matrigel (100 μl cells+100 μl matrigel). The animals were treated on the same day with the respective antibodies, as indicated below:
In addition to evaluating the mean body weight of the mice, the feed consumption of the mice was evaluated by pairwise comparisons of the study groups (Table 1).

[3] = Aggregation study: shaking 48 hours at room temperature, visual analysis for precipitates; assay type: physicochemical; conditions: PBS, no stabilizing proteins for H1L5
Description: In order to test the aggregation properties of anti-GDF-15 antibodies, antibody samples were shaken for 48 hours at room temperature in microcentrifuge tubes, and subsequently, the tubes were visually analyzed for aggregated antibody precipitates.

[4] = Freeze/thaw and dilution experiments; assay type: physicochemical
[5] = Study No. 140123: body weight of UACC-257 inoculated mice (cancer-induced weight loss); assay type: in vivo, Balb/c^nu/nu mice; conditions: 38 days
Description: FIG. 5: Treatment of cancer cachexia with anti-GDF-15 antibodies. […] The changes of the body weight are depicted in percent as compared to the starting body weight on day 0, for a period of 38 days.
as §1
The study was carried out in a double-blinded manner for the treatment with the antibodies and for the treatment with PBS.

[6] = Gel electrophoresis and coomassie staining of antibodies used in study No. 140123; assay type: physicochemical
Description: FIG. 6: Coomassie stain of antibodies used in the study No. 140123.
The quality of the humanized anti-GDF-15 antibody B1-23-H1L5 used in the study was tested by using gel electrophoresis and coomassie staining of the antibodies (see FIG. 6).

B1: H1L5: humanized anti-human GDF-15 mAb-B1-23; heavy chain SEQ ID No: 27, light chain SEQ ID No: 30 (antibody)
heavy: QITLKESGPTLVKPTQTLTLTCTFSGFSLSTSGMGVSWIRQPPGKGLEWLAHIYWDDDKRYNPTLKSRLTITKDPSKNQVVLTMTNMDPVDTATYYCARSSYGAMDYWGQGTLVTVSS[in this place human IgG1 constant region]
light: DIVLTQSPSFLSASVGDRVTITCKASQNVGTNVAWFQQKPGKSPKALIYSASYRYSGVPDRFTGSGSGTEFTLTISSLQPEDFAAYFCQQYNNFPYTFGGGTKLEIKRAPSVFIFPPSDEQLKSGTASVVCLLNNFYPREAKVQWKVDNALQSGNSQESVTEQDSKDSTYSLSSTLTLSKADYEKHKVYACEVTHQGLSSPVTKSFNRGEC
modifications: amino acid sequence of the heavy chain of the H1L5 humanized B1-23 anti-GDF-15 antibody; amino acid sequence of the light chain of the H1L5 humanized B1-23 anti-GDF-15 antibody
hrGDF-15
  binding to GDF-15 in ELISA: clearly concentration-dependent binding
[1]
  aggregation after 10 fold concentration: no signs of aggregation
[2]; average over day 17-34 intervals, with standard deviation
  Feed consumption per mouse and day: 3.4 ± 0.2 g
[2]; mouse, in vivo
  feed consumption compared with groups which did not receive the anti-GDF-15 antibodies: significantly higher
[3]
  tendency to aggregate: no tendency to aggregate
[4]
  aggregation during dilution steps or freeze/thaw cycles: did not aggregate
[5]
  body weight change compared to day 0: increase in body weight
[6]
  band appearance / aggregation in coomassie gel: not prone to aggregation

Source: patent publication US11760795B2, “Monoclonal antibodies to growth and differentiation factor 15 (GDF-15), and uses thereof for treating cancer cachexia and cancer” (JULIUS-MAXIMILIANS-UNIVERSITÄT WÜRZBURG, priority 2014, dated 2023)
